# In PubChem BioAssay AID686971 (National Center for Advancing Translational Sciences (NCATS), 2013):
# The whole screen tested about 360,000 compounds, of which about 7,500 (2.1%) were called active. This list was built around the results that the source calls inconclusive (neither active nor inactive); the mix of calls is not that of the screen. Calls come from the whole dose curve; as a rule, active = well fitted cell-killing curve with a large enough effect; inconclusive = small, poorly fitted or top-dose-only effect, or effect the other way, or another doubt; inactive = no such curve, though single readings can be large or run the other way. No potency is given beside an inconclusive call; the fits are too rough.
# Test: qHTS for induction of synthetic lethality in tumor cells producing 2HG: qHTS for the HT-1080-IDH1KD cell line;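 for activity, negative = toxicity: 0% = DMSO wells and -100% = cell-free medium wells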
# Conditions: HT-1080 IDH1 knockdown viability, ATP luminescence, 48 h; activity, negative = toxicity: at 46.1 µM (top of the series) unless noted
# How it was run: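 Cytotoxicity counter-line: IDH1KD HT-1080, 48 h, CellTiter-Glo. Curves classed by r2, magnitude and activity.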
# Potency is the fitted concentration of half-maximal effect; tags give direction and shape of the fitted curve.
Compound,"activity, negative = toxicity",Potency
CC1(C(=O)NS(=O)(=O)c2ccccc2)CCN1C(=O)CC1CCCCC1 (configuration not stated),inactive: 27.7%,
COc1cc(C(O)c2nc(-c3ccc(C)c(C)c3)cs2)ccc1F (configuration not stated),,"inconclusive [cytotoxic, single point]"
COc1cc2c(cc1[N+](=O)[O-])-c1ccc([N+](=O)[O-])cc1C2=NO,inactive: -16.7%,
Fc1ccc(CNC(=S)Nc2ccc(Cl)cc2)cc1,,"inconclusive [cytotoxic, single point]"
COc1ccc(/C=C/c2ccc3cccc(O)c3n2)c(OC)c1OC,,"inconclusive [cytotoxic, single point]"
CCn1cc(C(=O)N2CCN(c3ccccn3)CC2)c2cc(OC)c(OC)cc2c1=O,inactive: -11.8%,
NS(=O)(=O)c1cc(C(=O)OCCNC(=O)c2ccccc2)c(Cl)cc1Cl,inactive: 2.25%,
COCCOC(=O)C1=C(C)NC2=C(C(=O)CCC2)C1c1ccc2c(c1)OCO2 (configuration not stated),,"inconclusive [cytotoxic, single point]"
Cc1cc(/C=N/n2c(COc3ccccc3)nc3ccccc3c2=O)c(O)c([N+](=O)[O-])c1,,"inconclusive [cytotoxic, partial curve, poor fit]"
O=C(Cc1ccccc1)NC(CSSCC(NC(=O)Cc1ccccc1)C(=O)O)C(=O)O (configuration not stated),inactive: 6.9%,
Brc1cccc(CSc2nnc(-c3ccncc3)o2)c1,inactive: -7.53%,
COc1ccc(CN2CCN(C(=O)c3cccc4ccccc34)CC2)cc1Br,,"inconclusive [cytotoxic, single point]"
O=C(Nc1ccc2c(c1)OCO2)c1cc(C2CC2)on1,,active: 8.2 µM
O=C(c1ccc(S(=O)(=O)Nc2cccc(C(F)(F)F)c2)cc1)N1CCN(c2ccccc2O)CC1,,"inconclusive [cytotoxic, single point]"
COc1cccc(N2CCN(c3ccc4nnc(CCC(=O)Nc5ccc(OC)c(OC)c5)n4n3)CC2)c1,inactive: 24.6%,
Cc1ccc(O)c(C(=O)C=Cc2ccccc2)c1,,"inconclusive [cytotoxic, single point]"
CC(C)N1C(=O)C2C(c3ccccc3O)NC(C)(C(=O)O)C2C1=O (configuration not stated),inactive: 4.02%,
Cc1ccc(/C=C/C(=O)Nc2ccc(Oc3ccccc3)cc2)o1,,"inconclusive [cytotoxic, single point]"
COc1cc(C(=O)Nc2ccc3c(c2)N(C(=O)CCN(C)C)c2ccccc2CC3)cc(OC)c1OC,,"inconclusive [cytotoxic, single point]"
CCc1ccc(NC(=O)N(CCN2CCOCC2)Cc2ccc3c(c2)CCCN3CC)cc1,inconclusive: -33.4% [cytotoxic],
O=C(Nc1nnc(Cc2ccccc2)s1)Nc1ccccc1F,,"inconclusive [cytotoxic, partial curve]"
Cc1onc(-c2c(F)cccc2Cl)c1C(=O)Nc1cccc(S(=O)(=O)NCc2ccco2)c1,inactive: -26.3%,
CN(C)c1ccc(C(=O)N2CCCC2)cc1,inactive: 2.75%,
O=S(=O)(NC1CCN(Cc2ccccc2)CC1)c1ccc(F)c(F)c1,inactive: 3.15%,

Compound,"activity, negative = toxicity",Potency
Cc1ccc(S(=O)(=O)Nc2ccc3c(c2)nc(C)n3C)cc1,inactive: -0.0092%,
CCn1ncc(Br)c1C(=O)Nc1ccc2c(c1)OCCO2,inactive: -2.38%,
CCn1cc(-c2cc(C(=O)O)c3ccccc3n2)cn1,inconclusive: -33.1% [cytotoxic],
CC1=CC(C)(C)Nc2ccc(OC(=O)c3cccnc3)cc21,,"inconclusive [cytotoxic, single point]"
O=C1NC(=Nc2ccccc2)S/C1=C\C=C\c1ccco1,,"inconclusive [cytotoxic, single point]"
O=C1Nc2ccccc2OC1CC(=O)N1CCN(c2cccc(C(F)(F)F)c2)CC1 (configuration not stated),,active: 20 µM
COc1cc2c(cc1OC)C1(Nc3c-2c(C)nn3-c2ccccc2)C(=O)Nc2ccccc21 (configuration not stated),,"inconclusive [cytotoxic, single point]"
Cc1cc(O)ccc1N/C=C/c1onc(C)c1[N+](=O)[O-],,"inconclusive [cytotoxic, partial curve]"
COc1ccccc1CCn1cnc(-c2ccc(Br)cc2)c1C(C)C,,active: 23.1 µM
Cc1ccc(C)c(NC(=S)N2CCC(c3nc4ccccc4s3)CC2)c1,,"inconclusive [cytotoxic, single point]"
COc1ccccc1NC(=O)c1c(Nc2ccccc2C)sc(C(=O)Nc2cccc(Cl)c2)c1N,,"inconclusive [cytotoxic, single point]"
CC(/C=N/NC(=O)c1cccc([N+](=O)[O-])c1)=C\c1ccccc1,,"inconclusive [cytotoxic, single point]"
O=C(CCSc1nnc2ccc3ccccc3n12)Nc1ccc(F)cc1,,"inconclusive [cytotoxic, single point]"
COc1cc(-c2cnc3c(NC=O)cc(-c4cccc(NC(C)=O)c4)cn23)cc(OC)c1OC,,"inconclusive [cytotoxic, full curve]"
CCOc1ccc(N2C(=O)C(CC(=O)Nc3ccc(F)cc3)N(Cc3ccccn3)C2=S)cc1 (configuration not stated),,"inconclusive [cytotoxic, partial curve]"
O=C1C(=O)c2ccccc2C(O)=C1c1ccccc1F,inactive: -8.84%,
O=[N+]([O-])c1ccc2[nH]c3c(c2c1)CCCC3,inactive: -15.7%,
Cc1ccc2nc(-c3ccco3)c(CC3CCCCC3)n2c1,,"inconclusive [cytotoxic, single point]"
COC(=O)C1=C(C)N(c2ccc(C)c(C)c2)/C(=C/c2ccco2)C1=O,,"inconclusive [cytotoxic, single point]"
CCOC(=O)c1ccc(NC(=O)CCc2nnc3ccc(N4CCCC4)nn23)cc1,inactive: 0.0478%,
CC1(C(=O)NS(=O)(=O)c2ccccc2)CCN1C(=O)C/C=C/c1ccccc1 (configuration not stated),inactive: 24%,
COc1ccc(S(=O)(=O)NCC(c2ccc(C)cc2)N2CCN(C)CC2)cc1 (configuration not stated),inactive: -8.25%,
Cc1ccc(C(=O)N2CCN(c3cccc(Cl)c3)CC2)cc1C,,"inconclusive [cytotoxic, single point]"
CCCC(=O)Nc1ccc(Cl)c(NC(=O)c2cccnc2)c1,,"inconclusive [rising, single point]"

Compound,"activity, negative = toxicity",Potency
CO/N=C/C(C#N)c1ncc(C(F)(F)F)cc1Cl (configuration not stated),,"inconclusive [cytotoxic, single point]"
COCCOC(=O)c1c(C)oc2ccc(OCc3cc(C(=O)OC)oc3C)cc12,,"inconclusive [cytotoxic, single point]"
O=c1c(Cl)c(N2CCN(c3ccccc3)CC2)cnn1C12CC3CC(CC(C3)C1)C2,inconclusive: -31.8% [cytotoxic],
NC(=O)[C@@H]1CC2(CC(c3cccc(NC(=O)COc4ccc(Cl)cc4)c3)=NO2)CN1C(=O)COc1ccc(Cl)cc1 (some centres not stated),,"inconclusive [cytotoxic, single point]"
COCCNC(=S)N(CCc1c(C)[nH]c2ccccc12)Cc1cccnc1,inactive: -12.5%,
COc1cccc(NC(=O)COc2cccc(-n3cnnn3)c2)c1,inactive: 5.92%,
CCOC(=O)c1c(NC(=S)N2CCN(C)CC2)sc2c1CCN(C(=O)OCC)C2,,active: 18.4 µM
Nc1nnc(N2CCCCC2)s1,,"inconclusive [cytotoxic, full curve, poor fit]"
C[C@H](NC(=O)c1nc[nH]c1C(=O)N[C@@H](CCCCNC(=O)OC(C)(C)C)C(=O)OC(C)(C)C)c1ccccc1,,"inconclusive [cytotoxic, single point]"
O=C(COC(=O)c1cc([N+](=O)[O-])ccc1NCCO)Nc1ccc2c(c1)OCO2,,"inconclusive [cytotoxic, partial curve]"
Cc1ccc(Nc2nc(N)nc(CN3CCN(Cc4ccc5c(c4)OCO5)CC3)n2)cc1C,,"inconclusive [cytotoxic, single point]"
C=CCc1cc(/C=C2/NC(=S)NC2=O)cc(OC)c1O,inactive: -26.7%,
Cc1ccc(NC(=O)NNC(=O)Cn2nc(-c3ccccc3)c(-c3ccccc3)c(C#N)c2=O)cc1,,active: 5.17 µM
Cc1ccc(N=Nc2ccc(O)cc2)c(Br)c1,,"inconclusive [cytotoxic, single point]"
CCOC(=O)c1c2c(n(C)c1C)C(=O)C(=O)c1ccc(Br)cc1-2,,"inconclusive [cytotoxic, single point]"
CCc1cccc(CC)c1NC(=O)CN1C2CCCC1CC(NC(=O)Nc1cccc(OC)c1)C2 (configuration not stated),,"inconclusive [cytotoxic, partial curve]"
O=C(CSCSCC(=O)Nc1ccc2c(c1)OCO2)Nc1ccc2c(c1)OCO2,,"inconclusive [cytotoxic, partial curve]"
Cc1ccc(C(=O)NNC(=O)c2ccncc2)cc1[N+](=O)[O-],inactive: 2.96%,
Cn1cc(/C=C/c2cc[n+](C)cc2)c2cc(F)ccc21,,"inconclusive [cytotoxic, partial curve]"
CS(=O)(=O)/C(C#N)=C/c1cccn1S(=O)(=O)c1cccc2ccccc12,inactive: -3.31%,
CC(OC(=O)CN1C(=O)c2ccccc2C1=O)C(=O)NC1CCCCC1 (configuration not stated),inactive: 11.5%,
CCCCCCc1cc2cc(C(=O)Nc3ccccc3)c(=O)oc2cc1O,inconclusive: -11% [cytotoxic],
O=C(NNC(=S)Nc1ccc(Cl)c(Cl)c1)c1ccccn1,,"inconclusive [cytotoxic, full curve]"
Cc1ccc(NC(=S)NNC(=O)c2ccco2)cc1,,"inconclusive [rising, full curve, poor fit]"
